# “And” between values parts separate entries of the source, which are not always exact repeats. Equal entries are not always repeated. Over roughly 5,300 compounds, “PER2::LUC luminescence relative to vehicle control” has its median near 0.96; the highest 2% begin near 1.3. The list shows a part of the results.
# Tested on: mPer2Luc MEF
# Assay: PER2::LUC luminescence relative to vehicle control (fold of vehicle); higher = higher PER2::LUC reporter signal
# Conditions: 10 µM
# Method in brief: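 In 384-well plates, ~3000 mPer2Luc reporter mouse embryonic fibroblasts per well were cultured in DMEM with 10% FBS at 37 °C and 5% CO2 for 48 h before compounds from commercial libraries were added at 10 μM. ONE-Glo luciferase readings were taken 24 h and 30 h after treatment. Each value is PER2::LUC luminescence given as fold of vehicle control.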
Structure (SMILES),PER2::LUC luminescence (time after treatment 24 h),PER2::LUC luminescence (time after treatment 30 h)
CC(=O)OC[C@]12CCC(C)=C[C@H]1O[C@@H]1[C@H](O)[C@@H](OC(C)=O)[C@@]2(C)[C@]12CO2,0.96,0.978
CN1C(=O)CN=C(c2ccccc2)c2cc(Cl)ccc21,0.884,0.866
Cc1cc([C@@H]2CCCN2C)on1,1.13,0.883
C=C(C)CN1CC[C@]23c4c5ccc(O)c4O[C@H]2c2[nH]c4ccccc4c2C[C@@]3(O)C1C5,1.05,1.08
CCCCCCCCCC(=O)O[C@H]1CC[C@H]2[C@@H]3CCC4=CC(=O)CC[C@@H]4[C@H]3CC[C@]12C,1.07,1.05
O=C1C2CC=CCC2C(=O)N1SC(Cl)(Cl)Cl (stereo not given),0.981,0.905
CC(=O)O[C@H]1CC[C@@]2(C)C(=CC[C@@H]3[C@@H]2CC[C@]2(C)C(=O)CC[C@@H]32)C1,1.07 and 0.953,0.957 and 0.847
CC(C)OC(=O)[C@H](C)N[P@](=O)(CO[C@H](C)Cn1cnc2c(N)ncnc21)Oc1ccccc1,1.02,0.995
O=[N+]([O-])c1ncc[nH]1,1.06,1.02
CN1C[C@H](CNC(=O)OCc2ccccc2)C[C@@H]2c3cccc4c3c(cn4C)C[C@H]21,0.74,0.71
O=C(O)CC[N+](=O)[O-],0.991 and 1.11,1.05 and 1.13
Oc1ccc2c3c1O[C@H]1[C@@H](O)CC[C@@]4(O)[C@@H](C2)N(CC2CCC2)CC[C@]314,1.19 and 0.972,0.911 and 0.877
COC1=CC(=O)O[C@@H](/C=C/c2ccccc2)C1,1.28,1.35
O=C1NCN(c2ccccc2)C12CCN(CCCOc1ccc(F)cc1)CC2,0.919,0.845
CN1CCc2cc3c(cc2[C@H]1[C@@H]1OC(=O)c2c1ccc1c2OCO1)OCO3,0.971,0.973
OCc1cnc[nH]1,0.91,0.672
Cc1nc(-c2ccc(-c3ccc(C(=O)N4CCc5cc6c(cc54)C4(CCN(C)CC4)CO6)cc3)c(C)c2)no1,0.759,0.749
"CC12NC(Cc3ccccc31)c1ccccc12 (single isomer, unassigned; (+))",0.911,0.826
CC(C)c1cccc(C(C)C)c1O,1.05,1
Cc1nccc2c1[nH]c1cc(O)ccc12,0.857,0.907
CCCCCCCCCOc1ccc2[nH]cc(CCN)c2c1,1.05 and 0.639,1.2 and 0.636
N[C@H](CO)Cc1ccccc1,1.04,0.993

Structure (SMILES),PER2::LUC luminescence (time after treatment 24 h),PER2::LUC luminescence (time after treatment 30 h)
C[C@]1(C(=O)O)CCC[C@]2(C)c3cc(O)ccc3CC[C@@H]12,0.96,0.968
CCCN1CCC[C@@H]2Cc3n[nH]cc3C[C@H]21,0.868,0.918
CCCN1CCC[C@@H]2Cc3n[nH]cc3C[C@H]21 (racemic),0.965,0.942
Cc1[nH]c2ccccc2c1CN(C)C,0.685,0.678
CC(=O)N[C@H]1CN2CC[C@H](O)[C@@H]2[C@@H](O)[C@@H]1O,0.879,0.825
NC(=O)CI,1.59,1.31
C[C@]12CCC(=O)C=C1C=C[C@@H]1[C@@H]2CC[C@@]2(C)[C@H]1CC[C@@]2(O)CCC(=O)O,0.882 and 0.981,1.03 and 0.896
CC(=O)O[C@@H]1[C@H]2CC[C@H]3[C@@](C)(O)[C@@H]4C[C@H](O)C(C)(C)[C@@]4(O)[C@H](O)C[C@@]13C[C@@]2(C)O,0.97,0.959
CC[C@@H](C(=O)[C@@H](C)[C@@H](O)[C@H](C)[C@@H]1O[C@@H]([C@@H](CC)C(=O)O)CC[C@@H]1C)[C@H]1O[C@]2(C=C[C@@H](O)[C@]3(CC[C@@](C)([C@H]4CC[C@](O)(CC)[C@H](C)O4)O3)O2)[C@H](C)C[C@@H]1C,0.228 and 0.178,0.21 and 0.133
COc1ccc2[nH]c3c(c2c1)CCNC3,1.05,1.22
CO[C@H]1[C@H](O)[C@H](O[C@H]2CC[C@@]3(C=O)[C@H](CC[C@@H]4[C@@H]3CC[C@]3(C)[C@@H](C5=CC(=O)OC5)CC[C@]43O)C2)O[C@@H](C)[C@@H]1O,1.03,1.06
Cc1cccc(C)c1NC(=O)CN1CCCC1=O,0.997,0.945
CS(=O)(=O)Nc1ccc(Cc2noc(-c3ccc4[nH]cc(CCN)c4c3)n2)cc1,0.892,0.944
Cc1cccc(Cc2c[nH]cn2)c1C,1.06,1.07
CN1CC[C@]2(CCN3CCc4c(oc5ccccc45)[C@@H]3C2)N(C)C1=O,0.945,0.891
CC(C)[C@H]1C(=O)O[C@@H]2CCN3CC=C(COC(=O)[C@](C)(O)[C@]1(C)O)[C@H]23,1.02,0.979
CC(C)[C@H]1C(=O)N2CCC[C@H]2[C@]2(O)O[C@](NC(=O)[C@@H]3C=C4c5cccc6[nH]cc(c56)C[C@H]4N(C)C3)(C(C)C)C(=O)N12,0.903,0.866
N#CC(C#N)=Cc1ccc(O)c(O)c1,0.965,0.898
CCCC[N+]1(C)[C@@H]2C[C@@H](OC(=O)[C@H](CO)c3ccccc3)C[C@H]1[C@@H]1O[C@@H]12 (stereo not given in full),0.972,0.991
S=C=NCc1ccccc1,1.04,0.984
C[C@H]1CC[C@]2(NC1)O[C@H]1C[C@H]3[C@@H]4CC[C@H]5C[C@@H](O)CC[C@]5(C)[C@H]4CC[C@]3(C)[C@H]1[C@@H]2C,1.02,0.919
CC(C)C(Br)C(=O)NC(N)=O (stereo not given),0.738,0.936

Structure (SMILES),PER2::LUC luminescence (time after treatment 24 h),PER2::LUC luminescence (time after treatment 30 h)
COP(=O)(OC)OC=C(Cl)Cl,0.909,0.868
NC(CCCCCP(=O)(O)O)C(=O)O (racemic),1.22,1.09
COP(=O)(OC)C(O)C(Cl)(Cl)Cl (stereo not given),1.03 and 0.856,0.878 and 0.86
CNC1CC(N)C(O)C(OC2OC(CO)C(O)C3OC4(OC(C(N)CO)C(O)C(O)C4O)OC23)C1O (stereo not given),0.804,0.862
C=CCc1ccc2c(c1)OCO2,0.957,1.03
c1ccc(Cn2ccnc2)cc1,1.03,1.25
N=C(N)NCCCCCCCCCCNC(=N)N,0.972,0.965
C=CCN1CC[C@]23c4c5ccc(O)c4O[C@H]2C(=O)CC[C@@]3(O)[C@H]1C5,0.937 and 0.849,1.01 and 0.88
CCCOC(=O)c1cc2c(cn1)[nH]c1ccccc12,1.03,0.941
Cc1ccc2cc3c(ccc4ccccc43)c3c2c1CC3,1.18,1.11
C[C@@H]1C(=O)O[C@H]2[C@H]1CC[C@@]1(C)C=CC(=O)[C@@]3(C)O[C@@]213,0.923,0.994
O=c1n(Cl)c(=O)n(Cl)c(=O)n1Cl,1.05 and 1.07,0.958 and 1.09
C[C@@H]1O[C@H](C[N+](C)(C)C)C[C@H]1O (racemic),0.84,0.916
C[C@@H]1O[C@H](C[N+](C)(C)C)C[C@H]1O,0.96,1.01
CP(=O)(O)C1=CCNCC1,0.941,0.959
Cn1cc(C(=O)C(=O)NC2CN3CCC2CC3)c2ccccc21 (stereo not given),0.832,0.8
Cn1cc(C2=C(c3cn(C4CCN(Cc5ccccn5)CC4)c4ccccc34)C(=O)NC2=O)c2ccccc21,1.15,1.1
NC(=O)c1cc(N2CC2)c([N+](=O)[O-])cc1[N+](=O)[O-],0.962,1.23
CN1Cc2c(ccc3c2OCO3)[C@@H]2[C@H]1c1cc3c(cc1C[C@@H]2O)OCO3,0.446,0.425
CCCCCCCCCCCCCC(=O)O[C@@H]1[C@@H](C)[C@@]2(O)[C@@H](C=C(CO)C[C@@]3(O)C(=O)C(C)=C[C@@H]23)[C@@H]2C(C)(C)[C@]12OC(C)=O,1.12,1.08
CC1(C)C(C(=O)Nc2ccc(S(=O)(=O)c3ccc(NC(=O)C4C(C)(C)C4(C)C)cc3)cc2)C1(C)C,0.852,1.02
COc1c2c(cc3c1OCO3)CCN(C)C2,1.07,1.05

Structure (SMILES),PER2::LUC luminescence (time after treatment 24 h),PER2::LUC luminescence (time after treatment 30 h)
O=C(NCC1CCOCC1)c1cnc(Nc2ccc(Cl)cc2Cl)nc1C(F)(F)F,1.03,1.03
CN1CCc2cccc(Cl)c2CC1,0.982,0.838
COC(=O)[C@@H](N)CCCNC(=N)N[N+](=O)[O-],0.881,0.976
COc1cc(=O)oc(/C=C/C=C/C=C/C(C)=C/[C@@]2(C)O[C@H](C)[C@](C)(O)[C@H]2O)c1C,0.952,0.913
CN[C@@H](C)[C@H](O)c1ccccc1,1.2,0.938
CC[C@]1(O)CC[C@H]2[C@@H]3CCC4=CCCC[C@@H]4[C@H]3CC[C@@]21C,1.02,1.05
CO[C@H]1[C@@H](O)[C@@H](C)O[C@H](O[C@H]2[C@H](Oc3cccc4c(O)c5c(=O)oc6ccc(C)c7c(=O)oc(c34)c5c67)O[C@H](C)[C@H](O)[C@@H]2O)[C@@H]1O,1.11,1.04
CC(=O)O[C@H]1C[C@@H]2CC[C@@H]3[C@H](CC[C@@]4(C)[C@H]3C[C@H]([N+]3(C)CCCCC3)[C@@H]4OC(C)=O)[C@@]2(C)C[C@@H]1[N+]1(C)CCCCC1,0.857 and 1.06 and 0.934,1.25 and 0.954 and 0.971
C[C@]12CC[C@H](O)C[C@H]1CC[C@@H]1[C@@H]2CC[C@]2(C)[C@@H](C3=CC(=O)OC3)[C@@H](O)C[C@]12O,1.08,1.1
C[C@]12CCC(=O)C[C@@H]1CC[C@@H]1[C@@H]2CC[C@]2(C)C(=O)CC[C@@H]12,0.841,0.755
COc1cccc(NCC(F)Cn2c3ccc(Br)cc3c3cc(Br)ccc32)c1 (stereo not given),1.02,1.08
c1ccc2c(c1)Nc1ccccc1S2,0.897,1.1
C[C@]12CC[C@H]3[C@@H](CCC4=CC(=O)CC[C@@]43C)[C@@H]1CC[C@@H]2O,0.653,0.733
N=C(NCCC[C@H](N)C(=O)O)N[N+](=O)[O-],1.04,1.1
Cc1ccc(/N=C/N(C)/C=N/c2ccc(C)cc2C)c(C)c1,1.19,0.869
CCCN(CCC)C1Cc2cc(OC)c(OC)cc2C1,1.04,0.998
O=c1c2ccccc2[se]n1-c1ccccc1,1.1,0.901
CC(C)NC(C)Cc1ccc(I)cc1 (stereo not given),1.06,0.868
O=C(O)C(=O)c1cn(Cc2ccccc2)c2ccc(-c3ccc(OC(F)(F)F)cc3)cc12,0.98,0.882
